# Among all 310,000 compounds or so, about 2,200 (0.71%) showed an effect of 50% or more. Effects have a minus sign here. Some of the results follow.
# Molecular target: human ether-à-go-go-related gene (hERG) potassium channel (human, UniProt Q12809)
# Experiment: primary screen, population patch clamp on CHO cells stably expressing hERG
# Sequence of human ether-à-go-go-related gene (hERG) potassium channel (Q12809 whole entry, looked up): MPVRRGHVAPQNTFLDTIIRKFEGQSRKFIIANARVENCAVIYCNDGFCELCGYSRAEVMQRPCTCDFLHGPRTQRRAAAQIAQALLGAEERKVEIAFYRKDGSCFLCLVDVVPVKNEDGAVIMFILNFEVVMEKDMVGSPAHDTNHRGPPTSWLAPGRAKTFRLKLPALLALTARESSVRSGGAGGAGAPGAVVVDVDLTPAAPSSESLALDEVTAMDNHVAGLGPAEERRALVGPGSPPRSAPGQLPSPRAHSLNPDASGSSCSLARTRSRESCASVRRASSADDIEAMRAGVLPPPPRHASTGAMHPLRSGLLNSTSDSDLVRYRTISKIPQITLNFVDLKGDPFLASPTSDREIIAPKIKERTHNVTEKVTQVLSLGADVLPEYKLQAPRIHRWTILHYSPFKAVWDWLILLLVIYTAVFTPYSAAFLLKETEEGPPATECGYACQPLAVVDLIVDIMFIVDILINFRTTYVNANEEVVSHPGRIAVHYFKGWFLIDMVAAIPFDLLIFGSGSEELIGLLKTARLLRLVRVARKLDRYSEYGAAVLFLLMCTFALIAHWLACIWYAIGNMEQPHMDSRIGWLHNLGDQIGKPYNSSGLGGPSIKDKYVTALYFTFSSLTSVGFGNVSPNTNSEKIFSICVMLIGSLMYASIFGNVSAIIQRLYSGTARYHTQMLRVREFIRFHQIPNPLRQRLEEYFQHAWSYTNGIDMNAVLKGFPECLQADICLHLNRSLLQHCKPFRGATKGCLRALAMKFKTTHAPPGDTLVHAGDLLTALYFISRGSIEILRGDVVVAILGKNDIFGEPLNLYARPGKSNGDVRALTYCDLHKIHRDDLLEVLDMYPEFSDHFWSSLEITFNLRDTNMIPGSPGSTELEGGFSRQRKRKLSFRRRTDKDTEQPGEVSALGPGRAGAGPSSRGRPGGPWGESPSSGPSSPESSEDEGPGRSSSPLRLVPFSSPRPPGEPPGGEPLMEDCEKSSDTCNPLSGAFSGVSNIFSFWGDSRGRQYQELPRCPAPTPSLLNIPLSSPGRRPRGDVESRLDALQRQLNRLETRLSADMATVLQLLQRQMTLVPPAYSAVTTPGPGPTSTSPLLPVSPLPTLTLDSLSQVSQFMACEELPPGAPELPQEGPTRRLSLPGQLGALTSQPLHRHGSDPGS
row,Compound,"hERG current change (%, negative = inhibition) at 1uM"
1,COc1cccc(C(=O)NCC(=O)NCc2cc(=O)n(C)c(=O)n2C)c1,19.4%
2,Cc1nc(NC(=O)c2c(-c3ccccc3)noc2C)sc1C(=O)N(C)C,16.3%
3,COc1ccc(NC(=O)CSc2nc3ccncc3[nH]2)c(OC)c1,13.1%
4,CCCC(=O)NC(c1ccc(OC)cc1)c1c(O)ccc2ccccc12 (centres unmarked),15.8%
5,Cc1ccccc1CN(C)Cc1cc(=O)oc2c(C)c(C)ccc12,16.5%
6,Cc1nnc(C)n1/N=C/c1cc(Br)cc(Br)c1O,15.5%
7,Cl.N#C/C=C/N1CCN(Cc2ccc3c(c2)OCO3)CC1,12.7%
8,Cn1c(=O)c2c(nc3n2CC(COc2ccccc2)O3)n(C)c1=O (centres unmarked),13.8%
9,Cc1ccc(N2CC(C(=O)OCC(=O)Nc3ccc(F)cc3F)CC2=O)cc1 (centres unmarked),4.81%
10,Cc1oc(-c2ccccc2F)nc1CN1CCC(C(=O)NCc2cccnc2)CC1,-1.6%
11,COc1cc(-c2nc3ccccc3s2)ccc1O,-3.85%
12,CCOc1ccc(OCC)c2sc(C)nc12,9.93%
13,CCN1CCN(CC(O)COc2ccc(Cl)cc2)CC1.Cl (centres unmarked),-0.541%
14,COC(=O)c1cn(NC(=O)c2ccc([N+](=O)[O-])cc2Cl)c(=O)c2ccccc12,0.834%
15,N#CCCNc1c(Cl)cc(Cl)cc1C(=O)O,5.45%
16,Cc1nn(-c2ccccc2Cl)c(Cl)c1/C=N/Nc1cccc(C(=O)O)c1,6.86%
17,CC1(C)Cc2c(sc(/N=C/N3CCCCC3)c2C#N)C(C)(C)N1,-1.78%
18,COc1ccc(CCNC2CCc3ccccc3C2)cc1 (centres unmarked),-12.4%
19,COc1cccc(/C=C2\C=C(c3ccc(C)cc3)OC2=O)c1OC(C)=O,11.5%

row,Compound,"hERG current change (%, negative = inhibition) at 1uM"
1,C=CCn1c(C)cc(-c2csc(NC(=O)CCc3nc4ccccc4c(=O)[nH]3)n2)c1C,10.7%
2,O=C(NCC1CCCO1)C1CCC(=O)N1CCc1ccccc1 (centres unmarked),7.54%
3,Cc1c(Oc2cc(NN3CCCCC3)c([N+](=O)[O-])cc2[N+](=O)[O-])cccc1[N+](=O)[O-],10.3%
4,O=C(NC1=C(NC2CCS(=O)(=O)C2)C(=O)c2ccccc2C1=O)c1ccccc1 (centres unmarked),9.44%
5,Cc1ccc(-n2nc3c(=S)[nH]nc(C)c3c2C)cc1,15.1%
6,O=C(COC(=O)c1ccc(Cl)nc1)Nc1ccccc1OC(F)F,1.86%
7,O=C(Cn1cc(/C=N/NC(=O)c2cccc3ccccc23)c2ccccc21)Nc1ccc(F)cc1,1.77%
8,COC(=O)Cn1cnc2c(cnn2-c2ccc(OC)cc2)c1=O,15.6%
9,O=[N+]([O-])c1ccc(Oc2cnc3ccccc3n2)cc1,9.34%
10,Cc1ccc(C(=O)NCC(=O)N2CCCCCCC2)cc1,20.7%
11,Cn1c(NCc2ccccc2)cc(=O)n(C)c1=O,9.78%
12,O=C(Nc1ccc2c(c1)OCO2)C1CC(=O)N(c2ccccc2)C1 (centres unmarked),18.4%
13,O=C(Nc1ccn(Cc2ccc(Cl)cc2)n1)c1ccc2c(c1)OCO2,18.8%
14,O=C(CCC(=O)NC1CCCCCCC1)Nc1nnc(C(F)(F)F)s1,-6.93%
15,O=C(OCc1nnc(-c2ccc(Br)cc2)o1)c1ccco1,-3.17%
16,CC(=O)N1c2ccc(S(=O)(=O)N3CCC(C(=O)Nc4ccc(F)cc4)CC3)cc2CC1C (centres unmarked),24.3%
17,Cc1cccc(NC(=O)C(Cc2ccccc2)c2nn[nH]n2)c1C (centres unmarked),8.45%
18,CCOc1ccc(CCN2C(=O)C3C4CCC(O4)C3C2=O)cc1OCC (centres unmarked),8.44%
19,CC(C)[C@H](NC(=O)C1(c2ccccc2)CCN(C(=O)OC(C)(C)C)CC1)C(=O)O,2.17%

row,Compound,"hERG current change (%, negative = inhibition) at 1uM"
1,COc1cccc(OC)c1C(=O)N1CCOCC1,-13.7%
2,Cc1cc(C)nc(NS(=O)(=O)c2ccc(NC(=O)c3ccc4c(c3)OCO4)cc2)n1,2.11%
3,O=C1c2ccccc2C(=O)N1CCCc1nc2ccccc2c(=O)n1CCCn1ccnc1,-15.7%
4,COc1ccc(S(=O)(=O)N2CCCCCC2)cc1N(C)S(=O)(=O)c1ccc(Cl)cc1,6.64%
5,N#CC1=C(N)OC2=C(C(=O)CCC2)C1c1ccsc1 (centres unmarked),9.36%
6,Cc1c(C)n(CC(O)CNc2ccccc2)c2ccccc12.O=C(O)C(=O)O (centres unmarked),10%
7,Cc1cc(=O)oc2c(C)c(OCC(=O)N3CCN(c4cccc(Cl)c4)CC3)ccc12,8.32%
8,N#CC1=C(S)N(c2ccccc2)C(c2ccc(-c3cccc(Cl)c3)o2)NC1=O (centres unmarked),2.87%
9,COc1ccc(NC(=O)CCCCCN2C(=O)c3cccc([N+](=O)[O-])c3C2=O)c(OC)c1,14.2%
10,CC(=O)Nc1sc2c(c1C(c1ccc(F)cc1)N1CCOCC1)CCCC2 (centres unmarked),4.96%
11,COc1ccc(C2=C(C=Nc3c(C)n(C)n(-c4ccccc4)c3=O)C(c3ccccc3C)c3ccccc3O2)cc1OC (centres unmarked),12%
12,CC(C)NC(=O)COc1nncc2ccccc12,17.6%
13,COc1ccccc1C(=O)NCCC(=O)N(C)CC(=O)Nc1c(Cl)cccc1Cl,7.18%
14,O=C(CCN1C(=O)CSc2ccccc21)Nc1cccc(C(F)(F)F)c1,-0.696%
15,COC(=O)CNC(=O)COC(=O)c1ccc(Cl)nc1,6.99%
16,CC(/C=N/n1c(-c2ccco2)n[nH]c1=S)=C\c1ccccc1,10.3%
17,COc1ccc(C2=NOC(C(=O)N3CCOCC3)C2)cc1OC (centres unmarked),15.2%
18,COc1ccc(C(=O)Nc2c(O)ccc3ccccc23)cc1OC,12.3%

# From article PMC4336329 (PLoS ONE, 2015)
